In paper PMC4336329 (PLoS ONE, 2015):
Screen size: about 310,000 compounds; about 2,200 (0.71%) showed an effect of 50% or more. Effects have a minus sign here. Some of the results follow.

Target: human ether-à-go-go-related gene (hERG) potassium channel (human, UniProt Q12809)
Assay: primary screen, population patch clamp on CHO cells stably expressing hERG

human ether-à-go-go-related gene (hERG) potassium channel, sequence (Q12809 whole entry, looked up): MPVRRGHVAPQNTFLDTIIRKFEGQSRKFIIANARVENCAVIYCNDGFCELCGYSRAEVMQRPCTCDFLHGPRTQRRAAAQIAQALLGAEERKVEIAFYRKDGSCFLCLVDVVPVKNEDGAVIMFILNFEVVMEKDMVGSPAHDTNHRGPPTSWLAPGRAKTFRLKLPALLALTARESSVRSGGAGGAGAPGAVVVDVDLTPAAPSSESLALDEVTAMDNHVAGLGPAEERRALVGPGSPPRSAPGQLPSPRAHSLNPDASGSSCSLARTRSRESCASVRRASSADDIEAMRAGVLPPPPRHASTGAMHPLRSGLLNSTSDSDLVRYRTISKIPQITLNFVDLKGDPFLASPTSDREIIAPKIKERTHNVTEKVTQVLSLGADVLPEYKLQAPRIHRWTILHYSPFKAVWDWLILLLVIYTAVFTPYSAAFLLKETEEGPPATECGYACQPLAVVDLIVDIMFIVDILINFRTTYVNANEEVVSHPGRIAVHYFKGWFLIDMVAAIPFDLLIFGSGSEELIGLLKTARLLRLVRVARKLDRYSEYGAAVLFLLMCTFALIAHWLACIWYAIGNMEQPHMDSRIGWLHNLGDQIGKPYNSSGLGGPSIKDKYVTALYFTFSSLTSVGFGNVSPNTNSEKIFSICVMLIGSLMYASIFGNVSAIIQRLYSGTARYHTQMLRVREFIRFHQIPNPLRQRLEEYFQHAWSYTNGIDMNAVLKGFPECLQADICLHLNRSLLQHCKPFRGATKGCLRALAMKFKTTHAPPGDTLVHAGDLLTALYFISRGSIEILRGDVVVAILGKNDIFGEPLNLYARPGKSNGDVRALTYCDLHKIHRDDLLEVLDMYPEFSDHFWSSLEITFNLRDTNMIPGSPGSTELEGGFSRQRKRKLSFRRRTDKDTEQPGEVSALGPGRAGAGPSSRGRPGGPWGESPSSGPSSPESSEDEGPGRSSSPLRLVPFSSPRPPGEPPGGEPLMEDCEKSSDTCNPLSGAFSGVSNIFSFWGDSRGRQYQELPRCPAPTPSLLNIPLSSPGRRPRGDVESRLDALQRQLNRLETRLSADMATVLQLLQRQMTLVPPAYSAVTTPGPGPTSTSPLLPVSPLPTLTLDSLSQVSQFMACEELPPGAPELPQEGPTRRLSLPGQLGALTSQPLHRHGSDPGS

Going from `CC(C)n1cc(CN2CCN(C)C(CCO)C2)c2ccccc21` (stereo not shown) to `CCc1cc2c(=O)c(-c3nc4ccccc4n3C)coc2c(CN2CCOCC2)c1O`, the “hERG current change (%, negative = inhibition) at 1uM” value falls from 12% to 5.17%.

Going from `Cc1ccc(NC(=S)NNC(=O)Cn2nc([N+](=O)[O-])cc2C)cc1` to `Cc1ccc(-n2c(C)nnc2SCC(=O)Nc2ccccc2)cc1`, the “hERG current change (%, negative = inhibition) at 1uM” value falls from 18.7% to 0.083%.

Compared with `COc1cc(/C=N/NC(=O)c2ccc(O)cc2)ccc1OCC(=O)Nc1cccc([N+](=O)[O-])c1`, `Cc1ccc(-n2[nH]c(C)c(/C=N/NC(=O)c3ccc([N+](=O)[O-])cc3)c2=O)c(C)c1` is higher in “hERG current change (%, negative = inhibition) at 1uM” value: 10.8% for the first, 15.9% for the second.

Compared with `CN(C)/N=C/c1ccc(Sc2ccccc2[N+](=O)[O-])o1`, `CNC(=S)N/N=C/c1ccc(-c2ccc(Cl)c([N+](=O)[O-])c2)o1` is lower in “hERG current change (%, negative = inhibition) at 1uM” value: 15.6% for the first, 13.5% for the second.

Compared with `Cc1ccc(C2C3=C(CCCC3=O)N=C3c4ccccc4C(=O)C32)cc1` (stereo not shown), `Cc1ccc(S(=O)(=O)N2CCCC2C(=O)NCc2ccccc2F)cc1` (stereo not shown) is higher in “hERG current change (%, negative = inhibition) at 1uM” value: 7.26% for the first, 13.9% for the second.

First: O=c1c(-c2nc3ccccc3s2)cccn1Cc1ccc(Cl)cc1
Second: Cc1ccc(-c2nc3ccccc3s2)cc1S(=O)(=O)N1CCCC1
The “hERG current change (%, negative = inhibition) at 1uM” value of the first is higher: 4.91% for the first, -5.41% for the second.

Compared with `COC(=O)c1ccc(C)c(NC(=O)CN2C(=O)c3ccccc3S2(=O)=O)c1`, `CCC(C(=O)OCC(=O)Nc1cc(Cl)ccc1Cl)c1ccccc1` (stereo not shown) is higher in “hERG current change (%, negative = inhibition) at 1uM” value: 9.39% for the first, 20.4% for the second.

Going from `Cc1cccnc1NS(=O)(=O)c1cccc([N+](=O)[O-])c1` to `O=C(Nc1cccc(S(=O)(=O)N2CCCCC2)c1)c1ccccn1`, the “hERG current change (%, negative = inhibition) at 1uM” value rises from 6.18% to 9.62%.

First: COc1ccc([N+](=O)[O-])cc1NC(=O)CCN1CCOCC1
Second: CCNC(=O)COc1ccc(C=O)cc1OC
The “hERG current change (%, negative = inhibition) at 1uM” value of the first is lower: 4.67% for the first, 13.3% for the second.

First: CC(=O)Nc1cc[n+](C(C)C(=O)c2ccccc2)cc1.[Cl-] (stereo not shown)
Second: CN(Cc1ccccc1)S(=O)(=O)c1cccc(C(=O)O)c1
The “hERG current change (%, negative = inhibition) at 1uM” value of the first is higher: 12.2% for the first, 7.43% for the second.

Compared with `Cc1cc(Nc2cccc(C(=O)O)c2)n2ncnc2n1`, `COC(=O)c1cccc(NC(=S)NCc2ccco2)c1` is lower in “hERG current change (%, negative = inhibition) at 1uM” value: 12.7% for the first, 8.98% for the second.

First: COc1cc(C(=O)NCC(=O)OCc2cc(=O)oc3c(C)c(C)ccc23)cc(OC)c1OC
Second: CCN(CC)C(=S)NC(=O)c1cc(OC)c(OC)c(OC)c1
The “hERG current change (%, negative = inhibition) at 1uM” value of the first is lower: 4.1% for the first, 17.6% for the second.

Compared with `CCCCCCn1c(SCC(=O)Nc2cc(C)on2)nc2ccccc2c1=O`, `CCCCn1c(SCC(=O)NCCc2ccc(OC)c(OC)c2)nc2c1c(=O)n(C)c(=O)n2C` is higher in “hERG current change (%, negative = inhibition) at 1uM” value: -2.67% for the first, -0.0812% for the second.

Compared with `Cc1c(NC(=O)c2noc(C(C)C)c2[N+](=O)[O-])c(=O)n(-c2ccccc2)n1C`, `COCCn1c(-c2ccc3ccccc3c2)nc2c1c(=O)[nH]c(=O)n2CC(C)C` is lower in “hERG current change (%, negative = inhibition) at 1uM” value: 18.4% for the first, 1.16% for the second.

Going from `COc1cc2c(cc1OC)C(=O)CC(C)S2` (stereo not shown) to `COc1ccc(CNC(=O)CCCNC(=O)c2ccc(Cl)cc2)cc1OC`, the “hERG current change (%, negative = inhibition) at 1uM” value falls from 17.9% to 8.76%.

Compared with `O=[N+]([O-])c1cccc(/C=C/c2ccc3cccc(O)c3n2)c1`, `C/C(=N\NC(=O)c1ccncc1)c1cc2ccccc2o1` is higher in “hERG current change (%, negative = inhibition) at 1uM” value: 4.16% for the first, 7.82% for the second.

Compared with `CCOC(=O)c1c(C)[nH]c(C)c1C=O`, `CCc1c(C(=O)NCCc2cccc(C)c2)[nH]c(C)c1C(C)=O` is lower in “hERG current change (%, negative = inhibition) at 1uM” value: 11.8% for the first, 6.8% for the second.

First: CCN(C(=O)COC(=O)c1cnc(C)cn1)C1CCCCC1
Second: COc1cc(NC(=O)CCC2CCCC2)cc(-n2cnnn2)c1
The “hERG current change (%, negative = inhibition) at 1uM” value of the first is lower: -2.34% for the first, 6.77% for the second.

Going from `CC(C)NC(=O)CSc1ccccc1C(=O)NNC(=O)Cn1ccc(C(F)(F)F)n1` to `CCOC(=O)c1ccccc1NC(=O)CSc1ccc(-c2ccccn2)nn1`, the “hERG current change (%, negative = inhibition) at 1uM” value rises from 6.88% to 9.27%.

Going from `CCN(CC)CCN(Cc1cc2ccc(C)cc2[nH]c1=O)C(=S)Nc1ccccc1C(=O)OC` to `CC(C)(C)c1ccccc1OCC(=O)Nc1ccccc1C(=O)NCc1cccnc1`, the “hERG current change (%, negative = inhibition) at 1uM” value rises from -40.2% to 25.2%.

Compared with `Fc1ccc(N/N=C/C=C/c2ccccc2)c(F)c1`, `COc1ccc(/C=N/NC(=S)NCCc2ccccc2)cc1` is higher in “hERG current change (%, negative = inhibition) at 1uM” value: 4.46% for the first, 15.4% for the second.

Going from `COc1ccc(NC2CCCN(C(=O)c3ccc(C)c(N4CCNC4=O)c3)C2)cc1` (stereo not shown) to `COc1ccc(S(=O)(=O)Nc2ccc3oc(C)c(C(=O)O)c3c2)cc1`, the “hERG current change (%, negative = inhibition) at 1uM” value rises from 13.1% to 17.9%.

First: CNC(=S)N1N=C(c2ccc(C)cc2)CC1c1ccc(Br)cc1 (stereo not shown)
Second: Cc1c(Cl)cccc1NC(=O)Cn1c(CCC(=O)O)ccc1-c1ccc(Cl)cc1
The “hERG current change (%, negative = inhibition) at 1uM” value of the first is lower: 1.14% for the first, 10.6% for the second.

Compared with `CCOCCCNC(=O)C1(O)c2ccccc2NC(=O)N1c1ccc(Cl)c(Cl)c1` (stereo not shown), `CCOC(=O)C1=C(C)N(CCCCCC(=O)O)C(=O)NC1c1ccc(Cl)cc1` (stereo not shown) is higher in “hERG current change (%, negative = inhibition) at 1uM” value: 5.79% for the first, 13.9% for the second.

Compared with `O=C(/C=C/c1cccs1)NC(=S)NNC(=O)Cc1cccs1`, `O=C(NCc1ccc(F)cc1)c1cc(-c2cccs2)on1` is lower in “hERG current change (%, negative = inhibition) at 1uM” value: 22.7% for the first, 12.3% for the second.

Compared with `CCn1c(=S)[nH]c2sc3c(c2c1=O)CCCC3`, `CCCCC1CCc2[nH]nc(C(=O)O)c2C1` (stereo not shown) is lower in “hERG current change (%, negative = inhibition) at 1uM” value: 18.2% for the first, 4.01% for the second.

Going from `C=C[C@@H]1c2c(F)cccc2N(S(=O)(=O)c2ccc(C)cc2)[C@H](c2ccc(OC(C)=O)cc2)C1(C#N)C#N` to `O=C(Nc1ccc(S(=O)(=O)Nc2ccccc2)cc1)c1ccc(CN2CCOCC2)cc1`, the “hERG current change (%, negative = inhibition) at 1uM” value falls from 7.82% to -0.107%.

First: COC(=O)c1nc(NC(=O)c2ccccc2Cl)n[nH]1
Second: COc1ccc(C(=O)Nc2ccc(Cl)cn2)cc1Cl
The “hERG current change (%, negative = inhibition) at 1uM” value of the first is higher: 16.2% for the first, 9.55% for the second.

Compared with `CC(OC(=O)c1ccc(Cl)c(S(=O)(=O)N2CCOCC2)c1)C(=O)NC1CCCCC1C` (stereo not shown), `CC(=O)Nc1cc(NC(C)=O)cc(C(=O)N2CCCC3CCCCC32)c1` (stereo not shown) is lower in “hERG current change (%, negative = inhibition) at 1uM” value: 9.4% for the first, 8.64% for the second.

First: COCCNC(=O)Cc1c(C)c2c(cc(C)c3c(C(C)(C)C)coc32)oc1=O
Second: CCOC(=O)c1cnc2c(C)cccc2c1NCCc1ccc(OC)c(OC)c1
The “hERG current change (%, negative = inhibition) at 1uM” value of the first is higher: 12.8% for the first, -4.73% for the second.

Compared with `CCCS(=O)(=O)N1CCC(C(=O)NCCCOC(C)C)CC1`, `CC(=O)c1ccc(NC(=O)c2cccc(S(=O)(=O)N3CCN(C)CC3)c2)cc1` is lower in “hERG current change (%, negative = inhibition) at 1uM” value: 9.38% for the first, 8.18% for the second.

Going from `CCOC(=O)C1=C(COC(=O)CCOc2ccc(C)cc2)NC(=O)NC1C` (stereo not shown) to `CCOC(=O)c1ccc(NS(=O)(=O)c2cccc3nsnc23)cc1`, the “hERG current change (%, negative = inhibition) at 1uM” value falls from 1.56% to -4.59%.

Going from `Cc1ccc(N2CCN(S(=O)(=O)N3CCCCCC3)CC2)cc1Cl` to `C=CCNC(=O)c1oc2ccc(S(=O)(=O)N3CCC4(CC3)OCCO4)cc2c1C`, the “hERG current change (%, negative = inhibition) at 1uM” value falls from 12.6% to 9.37%.

Going from `CC1COC2C(O1)N(S(C)(=O)=O)CCN2S(C)(=O)=O` (stereo not shown) to `CCOC(=O)N1CCN(C(=O)CN(c2cccc(C)c2)S(=O)(=O)c2ccccc2)CC1`, the “hERG current change (%, negative = inhibition) at 1uM” value falls from 9.63% to 0.248%.

Compared with `Cc1ccc(CN2CC(C(=O)Nc3nnc(SCc4c(Cl)cccc4Cl)s3)CC2=O)cc1` (stereo not shown), `CCn1nnnc1NCc1ccc(OCc2c(F)cccc2Cl)c(OC)c1` is higher in “hERG current change (%, negative = inhibition) at 1uM” value: 10.8% for the first, 13.6% for the second.

First: CCn1cc(CNC(=O)c2cc([N+](=O)[O-])c(C)c([N+](=O)[O-])c2)cn1
Second: CN(Cc1cnn(Cc2ccccc2)c1)C(=O)CN=C1NS(=O)(=O)c2ccccc21
The “hERG current change (%, negative = inhibition) at 1uM” value of the first is higher: 4.17% for the first, 2.25% for the second.

First: O=C1CSC(c2ccccc2[N+](=O)[O-])N1CCc1ccccc1 (stereo not shown)
Second: CC1(C)C(=O)NC(=O)N1Cc1ccccc1
The “hERG current change (%, negative = inhibition) at 1uM” value of the first is lower: 10.8% for the first, 11.6% for the second.

First: CC(C)n1nnnc1SCC(=O)NCc1ccco1
Second: COCCn1cnc2c(c1=O)c1nc3ccccc3nc1n2/N=C/c1ccco1
The “hERG current change (%, negative = inhibition) at 1uM” value of the first is lower: 4.38% for the first, 16.2% for the second.

First: O=C(NC(=S)N(CC1CCC1)CC1CCCO1)c1cccc([N+](=O)[O-])c1 (stereo not shown)
Second: O=S(=O)(NCC1CCCO1)c1ccccc1 (stereo not shown)
The “hERG current change (%, negative = inhibition) at 1uM” value of the first is lower: 3.27% for the first, 14.6% for the second.

First: O=C(NCCCCNC(=O)C(F)(F)F)C(F)(F)F
Second: O=C(O)c1cc(NC(=O)c2cccc(F)c2)cc(NC(=O)c2cccc(F)c2)c1
The “hERG current change (%, negative = inhibition) at 1uM” value of the first is lower: 6.31% for the first, 18.1% for the second.

Going from `O=C(COc1ccc2ccccc2c1)N1CCCC1` to `O=C(c1ccco1)N1CCN(C(=O)c2cc3c(s2)-c2ccccc2OC3)CC1`, the “hERG current change (%, negative = inhibition) at 1uM” value falls from 1.53% to -10.5%.

Going from `O=C(Nc1cccc(-c2nc3ccccc3o2)c1)c1cccnc1` to `O=C(c1cc(-c2cccs2)on1)N1CCN(C(c2ccccc2)c2ccccc2)CC1`, the “hERG current change (%, negative = inhibition) at 1uM” value rises from -21.6% to 5.97%.

Going from `N#CCCN(Cc1cccnc1)C(=O)c1sc2cc(F)ccc2c1Cl` to `CN(C)C=O.Cc1cc(-c2ccco2)c(C#N)c2nc3ccccc3n12`, the “hERG current change (%, negative = inhibition) at 1uM” value falls from 0.623% to -2.47%.

Going from `CCc1noc(C)c1C(=O)N1CCSC1=Nc1cccc(Cl)c1C` to `N#Cc1c(NCCO)nc(NCc2ccccc2)c2c1CCN(Cc1ccccc1)C2`, the “hERG current change (%, negative = inhibition) at 1uM” value falls from 13.2% to -4.52%.
